The values that follow come from PubChem BioAssay AID493208 (National Center for Advancing Translational Sciences (NCATS), 2011).

Hit rate of the full screen: of about 44,000 compounds, about 340 (0.77%) were called active. Roughly 5% stayed inconclusive and do not appear here. Calls follow the shape of the dose curve; as a rule, active = well fitted inhibition curve with a large enough effect; inconclusive = small, poorly fitted or top-dose-only effect; inactive = flat fitted curve, though single readings scatter. The list shows a part of the results.
Potency is read from the fitted curve at half-maximal effect.

A short description of the test: Acumen qHTS Assay for Inhibitors of the mTORC1 Signaling Pathway in MEF (Tsc2-/-, p53-/-) Cells: Sytravon. Also: nearly all actives have a fitted effect of over 50% in size.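 As to activity change, negative = inhibition: plate controls were DMSO for no effect and rapamycin for full effect.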 The following applies: phospho-rpS6 immunofluorescence/PI, 24 h; series mostly up to 38.3 µM; activity change, negative = inhibition: at the top concentration. In short, it runs like this: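 Tsc2-/-, p53-/- MEFs (empty-vector stable line) in DMEM + 10% FBS were treated with compounds 24 h at 37 degree Celsius, fixed, and immunostained for phospho-rpS6 (Alexa-488) with propidium iodide counterstain. Laser-scanning cytometry gave % positive cells, normalized against 7.5 nM rapamycin and DMSO.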
(Quantitative high-throughput screening tests each substance at several concentrations.)
Take `Cc1ccc(Cc2c(C)nc3c(-c4ccccc4)c(C)[nH]n3c2=O)cc1`: the “activity change, negative = inhibition” value is inactive: 1.75%. Consider `Cc1ccc(-n2nc(C)c3c(C(=O)O)cc(C)nc32)cc1`, for which the “activity change, negative = inhibition” value is inactive: -7.8%. In the case of `Cc1cccc(C)c1OCCn1c(C2CC(=O)N(Cc3ccc(F)cc3)C2)nc2ccccc21` (stereo not drawn), the “activity change, negative = inhibition” value is inactive: -0.192%. Consider `CC(CNC(=O)c1ccc2c(c1)nc1n2CCOC1)c1ccccc1` (stereo not drawn), for which the “activity change, negative = inhibition” value was inactive: 9.37%. Take `O=C(CCS(=O)(=O)c1cccc2nonc12)Nc1cccc(F)c1`: the “activity change, negative = inhibition” value was inactive: 3.31%.

Take `CC(C)NC(=O)CSc1nc2ccccc2c(=O)n1Cc1ccc(C(=O)NC(C)C)cc1`: the “activity change, negative = inhibition” value is inactive: 8.97%. Consider `O=C(CSc1nc(=O)[nH]c2c1CCC2)NCc1ccc(Cl)cc1`, for which the “activity change, negative = inhibition” value was inactive: 1.35%.

As to `Cc1cccc(CSc2nc3cccnc3n2Cc2ccc(C(=O)NCc3ccco3)cc2)c1`, the “activity change, negative = inhibition” value is inactive: 1.94%. Regarding `COc1ccc(CN(Cc2ccco2)c2cnc(S(C)(=O)=O)nc2C(=O)Nc2ccc(C)c(C)c2)cc1`, the “activity change, negative = inhibition” value is inactive: -2.35%. `COC(=O)c1ccc(C(=O)Nc2ccc(-c3nc4cc(NC(=O)c5ccc(C(=O)OC)cc5)ccc4o3)cc2)cc1`: the “activity change, negative = inhibition” value is inactive: 9.51%. `CCSc1ncc(Cl)c(C(=O)Nc2ccc(S(=O)(=O)Nc3nccc(C)n3)cc2)n1`: the “activity change, negative = inhibition” value was inactive: 0.0842%. Take `O=C(CCC1N=C2c3ccccc3N=C(SCc3ccccc3Cl)N2C1=O)N1CCN(c2ccccc2)CC1` (stereo not drawn): the “activity change, negative = inhibition” value is inactive: -14.8%. The same measure, in the same setting: the value for `COC(=O)c1ccc(NC(=O)c2cccc3c2C(=O)N(C2CCCCC2)C3)cc1` was inactive: -1.25%. Turning to `COC(=O)CC1Oc2ccc(C)cc2-n2cc(-c3ccc(F)cc3)nc21` (stereo not drawn), the “activity change, negative = inhibition” value is inactive: -3.1%. `COc1ccc(N2CCN(C(=O)c3cc(NS(=O)(=O)c4ccc(F)cc4)ccn3)CC2)cc1`: the “activity change, negative = inhibition” value is inactive: 0.12%. The same measure, in the same setting: as for `CCOc1ccc(CCNC(=O)CCN2N=C(c3ccc(OC)cc3)CCC2=O)cc1OCC`, the figure is inactive: -8.05%; as for `CCCSCCCNC(=O)c1cc2n(n1)CCCN(Cc1ccc(C)cc1)C2=O`, inactive: 0%; as for `Cc1ccc(C)c(NC(=O)CSc2ncc3c(n2)-c2cc(Cl)ccc2N(Cc2ccccc2F)S3(=O)=O)c1`, inactive: -6.9%. Turning to `Cc1ccc(C)c(N2CCN(C(=O)CCn3c(=O)[nH]c4ccccc4c3=O)CC2)c1`, the “activity change, negative = inhibition” value is inactive: -0.799%. As for `CC1(C)CC(=O)c2cc(-c3nc(-c4ccc(Cl)cc4)cs3)c(=O)n(-c3ccc(F)cc3)c2C1`, the “activity change, negative = inhibition” value was inactive: 4.02%. For the compound `COc1ccc(Cn2ccc3nc(C)c(C(=O)NCc4ccc(C)cc4)cc3c2=O)cc1`, the “activity change, negative = inhibition” value was inactive: -8.12%.

With `Cc1cc(Cl)ccc1NC(=O)CCn1nc(C)c2c(C)n(-c3ccccc3)nc2c1=O`, the “activity change, negative = inhibition” value was inactive: -0.0615%. The same measure, in the same setting: as for `Cc1cccc(OCCSc2nc3ccc(NC(=O)COc4ccccc4F)cc3s2)c1`, the figure is inactive: -7.15%; as for `COc1ccc(-c2oc3ncn4nc(-c5ccccc5Cl)nc4c3c2-c2ccc(OC)cc2)cc1`, inactive: -1.11%.

Take `Cc1ccc(CNC(=O)CSc2nc3n[nH]c(C)c3c(=N)n2-c2cccc(C)c2)cc1`: the “activity change, negative = inhibition” value was inactive: 2.5%. On the same count and under the same terms, the value for `COc1ccc(-c2noc(-c3ccc(N4CCC(C)CC4)c([N+](=O)[O-])c3)n2)cc1OC` was inactive: -11.1%; that for `COc1ccc(N(CC(=O)N2CCN(c3ccc(F)cc3)CC2)S(=O)(=O)c2c(C)n[nH]c2C)cc1` was inactive: 0.852%.

On to `CCOc1ccc(NC(=O)Cn2cc(S(=O)(=O)N3CCN(c4ccccc4F)CC3)c3ccccc3c2=O)cc1`, for which the “activity change, negative = inhibition” value is inactive: -0.0267%. For `O=C(NCCc1csc2nc(-c3cccc(F)c3)nn12)c1ccc(Br)o1`, the “activity change, negative = inhibition” value was inactive: 2.01%. Same read-out and setting: as for `CC(C)(C)c1ccc(C(=O)NC(Cc2c[nH]c3ccccc23)C(=O)OCC(=O)c2ccc(Cl)cc2)cc1` (stereo not drawn), the figure is inactive: 2.08%. For the compound `Cc1ccc(CNC(=O)c2cccc(-n3cnc4cccnc43)c2)cc1`, the “activity change, negative = inhibition” value was inactive: -8.17%.

With `CCc1ccc(NC(=O)CCNS(=O)(=O)c2ccc3c(c2)CCCC(=O)N3)cc1`, the “activity change, negative = inhibition” value was inactive: -8.67%. Consider `COc1cccc(C(=O)Nc2c3c(nn2-c2ccc(Cl)cc2)CS(=O)(=O)C3)c1`, for which the “activity change, negative = inhibition” value is inactive: 9.96%.

Take `COc1ccc(NC(=O)c2oc3ccc(S(=O)(=O)N(C)C4CCCCC4)cc3c2C)cc1`: the “activity change, negative = inhibition” value is inactive: 2.01%.

Consider `C=CCC(CC=C)(CNC(=O)C(=O)Nc1ccc(C(=O)OCC)cc1)c1ccccc1`, for which the “activity change, negative = inhibition” value is inactive: 2.56%. In the case of `COC(=O)c1ccccc1NC(=O)c1cc2c(-c3ccc(OC)c(OC)c3)nn(C)c2s1`, the “activity change, negative = inhibition” value was inactive: -2.45%. Regarding `Cc1ccc(-c2nc3ccccn3c2Nc2ccc3c(c2)OCO3)o1`, the “activity change, negative = inhibition” value is inactive: -1.26%. The same measure, in the same setting: as for `Cc1ccc(NC(=O)C(Cc2ccccc2)n2cccc2)cc1C` (stereo not drawn), the figure is inactive: -0.121%. On to `CCCN(C(=O)c1cc2c(s1)-c1c(C)cccc1OC2)c1ccc(OCC)cc1`, for which the “activity change, negative = inhibition” value was inactive: -0.421%.

With `CC(C)c1ccc(Nc2nc3c(S(=O)(=O)c4ccc(Br)cc4)nnn3c3ccsc23)cc1`, the “activity change, negative = inhibition” value is inactive: -0.415%. In the case of `COc1ccc(-c2nn(-c3cccc([N+](=O)[O-])c3)c3c2cnc2cc4c(cc23)OCO4)cc1`, the “activity change, negative = inhibition” value was inactive: 14.3%. As to `Cc1cc2nc(-c3cccc(NC(=O)CSc4ccc(Cl)cc4)c3)oc2cc1C`, the “activity change, negative = inhibition” value was inactive: -1.19%. For `CCSc1nnnn1-c1cccc(C(=O)O)c1`, the “activity change, negative = inhibition” value was inactive: -5.56%. Turning to `CCOC(=O)c1cc(-c2ccc(C)cc2)n(CC(=O)NC2CCCCCC2)c1C`, the “activity change, negative = inhibition” value is inactive: 0.621%.

As to `Cc1cccc(-c2c3c(=O)n(C)c(=O)n(C)c3c3cnc4ccccc4n23)c1`, the “activity change, negative = inhibition” value is inactive: 0.871%.

As to `Cc1c(NC(=O)Nc2ccc(C#N)cc2)c(=O)n(-c2ccccc2)n1C`, the “activity change, negative = inhibition” value is inactive: 6.15%. Take `COc1ccc(C2c3[nH]c4ccc(OC)cc4c3CCN2C(=O)Nc2ccccc2)cc1` (stereo not drawn): the “activity change, negative = inhibition” value was inactive: -12.7%. Turning to `CCC(=O)Nc1sc2c(c1C(=O)Nc1cccc(C)c1)CCCC2`, the “activity change, negative = inhibition” value is inactive: -0.694%. With `Cc1cccc(C(=O)Nc2ccc(OCc3cc(=O)n4c5c(sc4n3)CCCC5)cc2)c1`, the “activity change, negative = inhibition” value is inactive: 2.16%.

Regarding `Cc1ccc(NC(=O)Cn2cc(S(=O)(=O)c3ccccc3)c(=O)c3cc4c(cc32)OCO4)cc1`, the “activity change, negative = inhibition” value was inactive: -10.4%. Regarding `COC(=O)Cc1c(C)c2cc3c(c(C)c2oc1=O)OCN(CCc1ccc(OC)cc1)C3`, the “activity change, negative = inhibition” value was inactive: -7.07%.

Turning to `CCN(CCN(C)C)C(=O)C1CCN(S(=O)(=O)c2c(C)noc2/C=C/c2ccccc2F)CC1`, the Potency is active: 18.5 µM. In the case of `Cc1cc(C)c(NC(=O)Cn2nnc(-c3nc(-c4ccccc4)no3)c2N)c(C)c1`, the “activity change, negative = inhibition” value was inactive: -1.1%.

With `Cc1cc(C)c2c(n1)SCCN2C(=O)Nc1ccc(C(=O)Nc2ccc(C(C)C)cc2)cc1`, the “activity change, negative = inhibition” value is inactive: 0.0831%. Take `CCN(CC)c1ccc2cc(-c3nc(-c4cc(OC)c(OC)c(OC)c4)no3)c(=O)oc2c1`: the “activity change, negative = inhibition” value was inactive: -7.73%. Turning to `Cc1ccc(C)c(NC(=O)C(c2ccccc2)N2Cc3ccccc3C2=O)c1` (stereo not drawn), the “activity change, negative = inhibition” value is inactive: -0.428%. For `COc1ccc(-c2cc(=O)oc3c4c(ccc23)OCN(Cc2cccc(OC)c2)C4)cc1`, the “activity change, negative = inhibition” value is inactive: -5.09%.

As for `COC(=O)c1ccccc1NC(=O)Cn1c(=O)n(CCCC(=O)NCc2ccccc2OC)c(=O)c2ccccc21`, the “activity change, negative = inhibition” value is inactive: 0.27%.
